# From the supplement of paper PMC7826260
# This is one part of the list. The data describe in vitro nicking of single-stranded DNA by Rep domains for 1 h at 37 °C with 3 µM enzyme; only the middle of the 90-letter strands is printed. The score is log2 (uncut reads / reads without enzyme); strong cutting gives strongly negative numbers. There is no active / inactive call. Reads are scaled to the total; where an enzyme cuts many sequences, the uncut ones exceed 0.
# Experiments:
# Experiment in all cases: uncleaved DNA left, log2 of reads against the no-enzyme library (log2 ratio); higher = less cleavage (more negative = more Rep cleavage of the k-mer); sequences stand for … in CTCGTCCG…ACCGGAGA
# [1] = tested on: T1, Rep nickase domain of Muscovy duck circovirus
# T1 sequence (residues 1-111, tag not shown): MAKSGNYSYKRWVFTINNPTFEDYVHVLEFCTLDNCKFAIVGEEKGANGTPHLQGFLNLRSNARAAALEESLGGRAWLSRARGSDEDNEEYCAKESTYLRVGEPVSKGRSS
# Experimental: (§1)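 A pool of 90-nt single-stranded DNAs with seven random bases just before the constant AC of the nick site (name = the seven bases) was cut by 3 µM recombinant His6-SUMO-tagged Rep nickase domain (300 nM DNA, 50 mM HEPES pH 8.0, 50 mM NaCl, 1 mM MnCl2, 1 h, 37 °C, three replicates). Uncut DNA was amplified and sequenced.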
# [2] = tested on: T2, Rep nickase domain of banana bunchy top virus
# T2 sequence (residues 1-94, tag not shown): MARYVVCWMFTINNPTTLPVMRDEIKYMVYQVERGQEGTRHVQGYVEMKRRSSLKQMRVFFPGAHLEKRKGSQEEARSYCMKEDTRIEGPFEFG
# Experimental: as §1
# [3] = tested on: T3, Rep nickase domain of cabbage leaf curl virus
# T3 sequence (residues 1-116, tag not shown): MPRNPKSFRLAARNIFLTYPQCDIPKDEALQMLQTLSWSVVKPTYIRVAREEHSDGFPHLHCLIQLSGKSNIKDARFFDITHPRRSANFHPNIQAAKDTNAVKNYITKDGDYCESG
# Experimental: as §1
# [4] = tested on: T4, Rep nickase domain of chickpea chlorotic dwarf virus
# T4 sequence (residues 1-124, tag not shown): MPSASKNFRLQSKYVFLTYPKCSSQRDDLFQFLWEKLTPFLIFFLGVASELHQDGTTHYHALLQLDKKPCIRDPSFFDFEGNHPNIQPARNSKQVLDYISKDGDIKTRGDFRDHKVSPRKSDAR
# Experimental: as §1
# [5] = tested on: T5, Rep nickase domain of faba bean necrotic yellows virus
# T5 sequence (residues 1-98, tag not shown): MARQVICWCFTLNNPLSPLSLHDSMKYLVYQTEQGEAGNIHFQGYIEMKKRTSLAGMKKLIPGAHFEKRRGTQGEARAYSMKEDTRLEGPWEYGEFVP
# Experimental: as §1
# [6] = tested on: T6, Rep nickase domain of maize striate mosaic virus
# T6 sequence (residues 1-117, tag not shown): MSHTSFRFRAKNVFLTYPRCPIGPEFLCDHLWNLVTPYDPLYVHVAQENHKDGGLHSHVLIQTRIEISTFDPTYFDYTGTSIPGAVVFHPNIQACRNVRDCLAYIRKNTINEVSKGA
# Experimental: as §1
# [7] = tested on: T7, Rep nickase domain of porcine circovirus 2
# T7 sequence (residues 2-116, tag not shown): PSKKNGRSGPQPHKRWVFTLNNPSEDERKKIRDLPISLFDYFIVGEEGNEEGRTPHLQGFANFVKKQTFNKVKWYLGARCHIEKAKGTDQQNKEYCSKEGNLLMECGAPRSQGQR
# Experimental: as §1
# [8] = tested on: T8, Rep nickase domain of tomato golden mosaic virus
# T8 sequence (residues 1-124, tag not shown): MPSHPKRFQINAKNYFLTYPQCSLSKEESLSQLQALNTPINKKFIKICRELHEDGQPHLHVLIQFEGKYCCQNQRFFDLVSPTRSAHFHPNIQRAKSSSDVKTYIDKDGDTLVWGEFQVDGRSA
# Experimental: as §1
# [9] = tested on: T9, Rep nickase domain of tomato yellow leaf curl virus
# T9 sequence (residues 1-136, tag not shown): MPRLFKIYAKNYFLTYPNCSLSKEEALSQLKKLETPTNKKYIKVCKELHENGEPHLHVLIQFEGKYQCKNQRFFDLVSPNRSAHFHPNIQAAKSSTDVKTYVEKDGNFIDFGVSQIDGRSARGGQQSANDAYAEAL
# Experimental: as §1
# [10] = tested on: T10, Rep nickase domain of wheat dwarf virus
# T10 sequence (residues 1-137, tag not shown): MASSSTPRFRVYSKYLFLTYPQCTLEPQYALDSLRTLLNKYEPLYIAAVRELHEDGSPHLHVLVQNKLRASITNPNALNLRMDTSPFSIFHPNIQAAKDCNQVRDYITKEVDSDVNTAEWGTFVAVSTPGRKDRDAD
# Experimental: as §1
Sequence,uncleaved DNA left (log2) [1],uncleaved DNA left (log2) [2],uncleaved DNA left (log2) [3],uncleaved DNA left (log2) [4],uncleaved DNA left (log2) [5],uncleaved DNA left (log2) [6],uncleaved DNA left (log2) [7],uncleaved DNA left (log2) [8],uncleaved DNA left (log2) [9],uncleaved DNA left (log2) [10]
GAGAATG,0.048,0.111,0.0451,0.642,-0.0531,1.49,0.138,0.108,-3.41e-05,0.103
ATAGGTA,0.113,0.0576,0.25,0.927,0.0966,1.29,0.0756,0.116,-0.129,0.0416
CCTCCCG,-0.0536,-0.092,-0.651,-0.0678,-0.0317,-0.848,-0.0297,-0.0158,-0.13,-0.111
CGCCGCG,-0.136,-0.101,-0.732,0.05,-0.0675,-0.683,0.0504,-0.217,-0.143,-0.0756
CAGACCC,-0.137,-0.0152,0.474,1.26,0.101,1.85,-0.0476,-0.0413,0.072,0.13
CGGTCTC,-0.0158,-0.106,0.152,0.318,-0.203,0.774,-0.0391,-0.209,-0.12,-0.116
CTCGTGG,0.0473,0.12,0.303,1.01,-0.00682,0.826,0.0917,0.06,-0.0261,0.083
TGTATAC,0.131,0.115,0.438,0.662,0.0437,1.49,0.132,0.138,0.00468,0.0895
TTCTCGT,0.00385,-0.0907,-0.226,-0.903,-0.0925,-0.84,-0.214,-0.155,-0.102,-0.123
TGCCTAT,0.0635,-0.0911,0.133,-0.36,-0.00537,-0.292,-0.0159,-0.025,0.0592,0.0317
GCCGTGA,0.18,-0.0281,0.395,0.856,-0.0697,0.526,0.236,0.0625,0.106,0.041
ATGCTGA,0.0752,-0.044,0.267,1.17,0.0117,1.04,0.144,0.00468,-0.195,-0.0309
GACAATC,0.0596,0.099,0.35,0.965,-0.0393,0.862,0.194,-0.0159,0.123,0.114
ACTTTCT,-0.643,-0.119,-0.469,-2.53,0.0518,-0.852,-2.05,-0.0103,-0.0673,-0.129
TGAGCAC,0.0056,-0.0188,0.0781,0.372,-0.0136,0.253,0.0619,0.0318,-0.0556,0.0725
CAAACAG,0.169,0.177,-0.67,-0.603,0.145,-0.993,0.28,0.0873,0.138,0.0245
AGCTTCA,0.0267,-0.0154,0.132,-0.209,0.0922,0.192,-1.24,0.0883,0.0738,0.0941
TAGCGTA,-0.0757,-0.101,-0.426,-1.36,0.0377,-1.01,-0.402,0.0932,0.0728,0.00298
TTTGCTA,-0.0691,-0.0697,-0.437,-1.04,0.0689,-1.16,-0.15,-0.0994,0.00882,-0.0957
TGGGCCG,0.0237,-0.0247,-0.473,0.167,-0.00492,-0.455,0.0649,-0.0696,-0.0451,-0.14

Sequence,uncleaved DNA left (log2) [1],uncleaved DNA left (log2) [2],uncleaved DNA left (log2) [3],uncleaved DNA left (log2) [4],uncleaved DNA left (log2) [5],uncleaved DNA left (log2) [6],uncleaved DNA left (log2) [7],uncleaved DNA left (log2) [8],uncleaved DNA left (log2) [9],uncleaved DNA left (log2) [10]
TTACCTA,0.037,0.143,0.106,-1.98,0.101,-0.0226,-1.18,0.166,0.112,0.153
CCGATTA,-0.038,-0.0358,-0.0856,-1.08,-0.0102,-0.47,-0.123,0.0473,-0.27,-0.0149
CGGACAA,-0.0458,0.0625,0.872,2.01,0.0936,2.22,0.239,-0.0698,0.045,0.141
GAGTGGT,-0.118,-0.723,0.292,0.441,-0.637,1.2,-3.01,0.114,0.132,0.0595
ATCCACG,-0.0617,-0.0873,-0.965,-0.195,-0.127,-1.13,0.0691,-0.0977,-0.14,-0.252
CAAGACG,-0.0313,0.00391,-0.804,-0.55,-0.0538,-1.2,0.0917,0.0367,0.0261,-0.184
ATTATGT,-0.391,-0.0709,-0.0806,-0.503,0.00406,-0.958,-3.08,-0.0605,0.0149,-0.0194
GTGTGGC,-0.0773,-0.00247,0.244,0.781,-0.162,1.57,0.0122,0.0274,-0.0811,-0.03
GCCCCTA,0.0652,0.0914,0.0364,-0.133,-0.0593,0.321,0.0162,-0.0277,-0.0152,-0.045
TCAATAT,0.167,0.0315,0.133,-0.831,-0.00806,-0.407,-0.0309,0.0317,0.0201,0.0217
AAGCGTT,0.0254,-0.0777,-0.0364,0.357,-0.154,0.585,-3.16,-0.0711,-0.23,-0.0841
GAGTATC,-0.126,-0.0271,0.268,0.587,-0.565,1.02,-2.47,-0.00928,0.0979,0.12
TTTCATC,-0.00583,-0.0434,0.206,-0.143,-0.0589,-0.579,-0.0747,-0.146,0.0236,0.0637
TTCTAAG,0.259,0.157,-0.757,-0.407,0.105,-1.15,0.142,0.0284,0.13,0.0661
ATATGAA,-0.141,-0.0789,-0.151,-0.409,-0.0263,-0.679,-0.174,-0.0304,-0.0785,-0.0348
GTCGGCG,-0.0746,-0.0895,-0.723,-0.503,-0.113,-0.742,0.0269,-0.0103,0.0312,-0.227
CAAGGGG,0.0867,0.0652,0.22,0.595,0.0583,0.127,0.259,0.0993,0.0495,0.154
CCTTTCC,-0.0872,-0.0728,-0.032,-0.523,-0.00391,-0.619,-0.114,-0.0741,-0.131,-0.099
GTCCGTC,0.0364,0.0263,0.283,0.708,-0.0105,1.29,0.0189,-0.0678,0.0314,0.0903
TCGTTTC,-0.0328,-0.111,0.106,0.0297,-0.162,-0.564,-0.236,-0.16,-0.123,-0.162

Sequence,uncleaved DNA left (log2) [1],uncleaved DNA left (log2) [2],uncleaved DNA left (log2) [3],uncleaved DNA left (log2) [4],uncleaved DNA left (log2) [5],uncleaved DNA left (log2) [6],uncleaved DNA left (log2) [7],uncleaved DNA left (log2) [8],uncleaved DNA left (log2) [9],uncleaved DNA left (log2) [10]
CGACCCA,0.045,0.167,0.225,0.319,0.102,0.693,-0.074,0.108,0.0782,0.104
CTGTGGC,0.102,-0.0697,-0.163,-0.476,0.0557,-0.979,0.0946,0.088,0.0869,0.0216
TAGTCAC,0.0403,-0.0205,0.0314,-0.198,-0.0967,-0.226,-3.04,-0.00919,0.156,0.0767
TTTTTCC,0.0433,-0.124,0.136,-0.245,-0.00242,-0.347,-0.0745,-0.171,-0.127,0.0396
AAGCATG,0.11,0.0723,0.224,1.02,0.0364,1.03,0.195,0.118,-0.00337,0.00505
TCCAACG,0.0277,0.0712,-0.831,-0.831,0.0273,-1.18,0.0771,0.0324,-0.0242,-0.0591
TCTTACT,-3.54,-0.739,-1.11,-2.97,-0.0613,-0.436,-3.9,-0.241,-0.0642,-0.786
AATGGAA,-0.04,-0.0652,0.147,1.26,0.0232,1.47,0.149,0.0373,-0.152,0.0148
TAGAAGG,0.0379,0.0511,0.383,0.919,0.0455,0.822,0.0559,0.0945,-0.0791,-0.027
CCAGTTG,-0.0437,-0.0703,-0.0644,0.221,-0.0529,-0.291,0.0304,-0.0305,-0.183,-0.0884
GTACCTC,-0.0348,-0.00316,0.298,0.625,-0.0857,1.33,-0.0243,-0.0284,0.00706,0.0109
GAACGAG,-0.146,-0.105,0.385,0.982,-0.0778,0.568,0.0202,-0.115,0.0283,0.0542
TACTCAG,0.0512,0.0198,-0.823,-0.899,-0.0234,-1.25,-0.097,-0.000987,-0.0358,-0.099
TATGTGT,0.0535,-0.0866,-0.527,-1.23,0.0699,-1.03,-0.0512,-0.0361,0.0153,-0.108
GCGTAAC,-0.09,-0.098,-0.208,-0.216,-0.165,0.101,-0.0454,0.00796,-0.119,0.00519
TGGCTGA,0.209,0.281,0.361,1.14,0.115,1.76,0.277,0.129,0.205,0.259
TCACCGC,-0.0622,-0.134,-0.354,-0.819,-0.101,-0.798,-0.151,-0.0715,-0.181,-0.0753
GACTTCT,-2.09,-1.4,0.0945,-1.89,0.0489,0.732,-2.86,-0.0553,-0.0863,-0.0587
GTTAAAT,0.147,0.171,0.434,0.992,0.089,1.73,0.114,0.15,0.183,0.21
TACTCTC,-2.23,-0.41,-0.95,-2.02,-0.0112,-0.411,-3.11,-0.199,-0.149,-0.151
